# Data: PubChem BioAssay AID624417 (National Center for Advancing Translational Sciences (NCATS), 2012)
# Among all 410,000 compounds or so, about 6,400 (1.6%) were called active. The shares of active, inactive and inconclusive entries below differ from those in the screen. The call rests on the fitted dose curve; in most records, active means well fitted inhibition curve with a large enough effect; inconclusive means small, poorly fitted or top-dose-only effect; inactive means no such curve, though single readings can be large or run the other way. No potency is given beside an inconclusive call; the fits are too rough.
# Biological target: Glucagon-like peptide 1 receptor (Homo sapiens) (UniProt P43220)
# Assay: qHTS of GLP-1 Receptor Inverse Agonists (Inhibition Mode); further: nearly all actives have a fitted effect of over 55% in size
# Details: HEK293 GLP-1R CRE-luciferase, luminescence, 24 h, GLP-1R form is constitutively active; activity change, negative = inhibition: at 38.3 µM (top of the series) unless noted
# Outline: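 Seeding at 200 cells/uL, 12 h culture, 24 hr compound treatment, then luciferase reagent and a luminescence read; cells are HEK293 stably expressing a constitutively active GLP-1R plus cAMP-responsive luciferase.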
# On the % scale 0 is the no-effect control and ±100 the full control effect; potency means the concentration at half of the fitted maximal effect; tags describe the fitted curve by direction and shape.
# UniProt P43220, sequence (P43220 whole entry, looked up): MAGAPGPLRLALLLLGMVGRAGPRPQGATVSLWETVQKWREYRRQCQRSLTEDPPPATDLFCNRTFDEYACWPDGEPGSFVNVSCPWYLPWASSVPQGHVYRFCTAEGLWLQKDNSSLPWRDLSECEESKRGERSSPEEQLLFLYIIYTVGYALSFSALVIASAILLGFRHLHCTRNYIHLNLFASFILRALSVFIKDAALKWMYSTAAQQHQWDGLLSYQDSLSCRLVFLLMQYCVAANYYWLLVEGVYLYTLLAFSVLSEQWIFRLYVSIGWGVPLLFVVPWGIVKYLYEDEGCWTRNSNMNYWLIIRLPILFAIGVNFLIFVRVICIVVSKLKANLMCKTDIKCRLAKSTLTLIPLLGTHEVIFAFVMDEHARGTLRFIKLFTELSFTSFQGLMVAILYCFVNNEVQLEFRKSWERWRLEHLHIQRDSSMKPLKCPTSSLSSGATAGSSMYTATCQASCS
SMILES,Potency,"activity change, negative = inhibition"
COc1ccc2cc3c(N)nn(C(=O)c4ccc(F)cc4Cl)c3nc2c1,"inconclusive [inhibitor, full curve, poor fit]",–
COC(=O)c1cnn(-c2ccccc2)c1/C=N/NC(=S)Nc1ccccc1,"inconclusive [inhibitor, partial curve, poor fit]",–
Cc1cccc(NC(=S)NC(=O)c2ccc(Br)o2)c1C,–,inactive: -25.1%
COC(=O)c1ccccc1NC(=O)CN1CCCCCC1,"inconclusive [inhibitor, partial curve, poor fit]",–
CCN(CC(=O)Nc1ccc(NC(C)=O)cc1)C(=O)COc1ccc(C(=O)c2ccccc2)cc1,–,inactive: 12.1%
COC(=O)CN1C(c2ccc(Cl)cc2)=Nc2ccc(Cl)cc2C1c1ccccc1 (centres undefined),"inconclusive [inhibitor, single point]",–
O=C(Nc1cccc(C(F)(F)F)c1)C1Cc2c(-c3ccc(Cl)cc3)ccnc2O1 (centres undefined),"inconclusive [inhibitor, single point]",–
O=C(CC1N=C2c3ccccc3N=C(SCc3cccc(F)c3)N2C1=O)NC1CCCCC1 (centres undefined),"inconclusive [inhibitor, partial curve, poor fit]",–
C/C(=N\Nc1ccc(Cl)cc1)c1ccncc1,–,inconclusive: -85.5% [inhibitor]
CCN(Cc1ccccc1)S(=O)(=O)c1ccc(OC)cc1,"inconclusive [inhibitor, partial curve, poor fit]",–
O=C(Nc1ccc(F)c(F)c1)c1ccc(F)c(S(=O)(=O)N2CCC3(CC2)OCCO3)c1,active: 3.55 µM,–
O=C(c1cccc(S(=O)(=O)N2CCCC2)c1)N1CCCc2ccccc21,"inconclusive [inhibitor, partial curve]",–
Cc1cccc(N=c2oc3cc(O)ccc3cc2C(N)=O)c1,"inconclusive [inhibitor, partial curve]",–
CC1(C(=O)O)Sc2[nH]c(=O)sc2C2c3ccccc3OC(=O)C21 (centres undefined),–,inactive: -4.18%
CC(=O)N1c2ccc(S(=O)(=O)N3CCCCC3)cc2CC1C(=O)Nc1ccc(C)cc1 (centres undefined),"inconclusive [inhibitor, full curve, poor fit]",–
CCn1cc([N+](=O)[O-])c(=O)c2cc(F)c(N3CCOCC3)cc21,–,inactive: 0.663%
Cc1onc(-c2ccccc2Cl)c1C(=O)NC1CCCCCC1,"inconclusive [inhibitor, partial curve, poor fit]",–
CCN(CC)CCNC(=O)c1ccc(Cl)c(S(=O)(=O)Nc2ccc(Cl)cc2)c1,"inconclusive [inhibitor, single point]",–
Cc1cccc(OCC(=O)Nc2cccc(-c3nc4ccccc4s3)c2)c1,"inconclusive [inhibitor, single point]",–
Cc1cc(C(=O)CCC(=O)Nc2cccc(F)c2)c(C)s1,"inconclusive [inhibitor, partial curve, poor fit]",–

SMILES,Potency,"activity change, negative = inhibition"
CC(C)Cc1nc2sc3c(c2c(=O)n1N)CC(C(C)C)OC3 (centres undefined),"inconclusive [inhibitor, full curve, poor fit]",–
CC(C)(C)c1cc(NCCCn2ccnc2)n2ncc(-c3ccc(Cl)cc3)c2n1,"inconclusive [inhibitor, single point]",–
CCCCCOc1ccc(NC(=O)CSc2cccc3cccnc23)cc1,"inconclusive [inhibitor, single point]",–
COCCNC(=O)c1cccc(S(=O)(=O)N2CC3(C)CC2CC(C)(C)C3)c1 (centres undefined),"inconclusive [inhibitor, partial curve, poor fit]",–
CCC(C(=O)NCCc1ccc(SC)cc1)n1nc(C)c2c(C)n(-c3ccc(C)cc3)nc2c1=O (centres undefined),"inconclusive [inhibitor, single point]",–
COc1ccc(OCc2cc(C(=O)N3CCN(CC4CC4)CC3)no2)c(Cl)c1,"inconclusive [inhibitor, partial curve, poor fit]",–
O=C(NCC(c1cccs1)N1CCOCC1)c1ccc(Cl)s1 (centres undefined),"inconclusive [inhibitor, full curve]",–
COc1ccc(Cl)cc1C(=O)Nn1c(-c2cccs2)nc2ccccc2c1=O,"inconclusive [inhibitor, single point]",–
Cc1cccc(N(C(=O)c2ccc(Cl)cc2)C2CS(=O)(=O)CC2OC(=O)c2ccc(Cl)cc2)c1 (centres undefined),"inconclusive [inhibitor, single point]",–
O=C(NCCOc1ccc(Cl)cc1)c1cccc(S(=O)(=O)N2CCCC2)c1,"inconclusive [inhibitor, partial curve, poor fit]",–
Cc1ccc(-n2nc(CO)c(C(=O)NC(C)c3ccccc3)n2)cc1C (centres undefined),"inconclusive [inhibitor, partial curve]",–
Cc1ccc(CCNC(=O)c2ccc(CSc3nc4ccncc4n3Cc3ccc(F)cc3)cc2)cc1,"inconclusive [inhibitor, single point]",–
CN(Cc1ccccc1)C(=O)COC(=O)/C=C/c1ccc2c(c1)OCO2,"inconclusive [inhibitor, partial curve, poor fit]",–
CCCCOc1ccc(S(=O)(=O)NC(=O)C2(C)CCN2C(=O)Cc2ccccc2Cl)cc1 (centres undefined),"inconclusive [inhibitor, single point]",–
O=C(NCC1CCN(Cc2ccccc2F)CC1)Nc1cccc(Br)c1,–,inconclusive: -94.1% [inhibitor]
COCCCn1c(=O)/c(=C\c2ccccc2OC(F)F)s/c1=C(/C#N)C(N)=O,"inconclusive [inhibitor, full curve, poor fit]",–
CC(C)C[C@H](NC(=O)c1nc[nH]c1C(=O)NCC(=O)OC(C)(C)C)C(=O)OCc1ccccc1,"inconclusive [inhibitor, single point]",–
CC1=Nc2cc(C(=O)NCc3ccco3)ccc2Sc2ccc(C)cc21,"inconclusive [inhibitor, full curve, poor fit]",–
O=C(Nc1cc(Sc2ccccn2)cc([N+](=O)[O-])c1)c1cccc(Cl)c1,"inconclusive [inhibitor, single point]",–
